PubChem BioAssay AID1645882 (National Center for Advancing Translational Sciences (NCATS), 2021)
The campaign covered roughly 16,000 compounds. About 120 (0.75%) were called active. Roughly 4% stayed inconclusive and do not appear here. Calls come from the whole dose curve; as a rule, active = well fitted inhibition curve with a large enough effect; inconclusive = small, poorly fitted or top-dose-only effect; inactive = no such curve, though single readings can be large or run the other way. This is one part of the list.

Molecular target: Rap guanine nucleotide exchange factor 3 (Homo sapiens) (UniProt O95398)
Experiment: Validation qHTS for antagonist of cAMP-regulated guanine nucleotide exchange factor 3 (EPAC1);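 note: plate controls were DMSO for no effect and ATA control for full effect; nearly all actives have a fitted effect of over 75% in size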
Settings: EPAC1 Rap1B-BODIPY-GDP exchange, fluorescence; series mostly up to 150 µM; activity change, negative = inhibition: at the top concentration
Outline: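 EPAC1 (100 nM) mixed with 250 nM RAP1B-BODIPY-GDP and 50 uM GDP; compounds in concentration series, 5 min at room temperature. Fluorescence (ex 480/em 540 nm) read every 5 min for 30 min; normalized to ATA control and DMSO.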

UniProt O95398, sequence (O95398 whole entry, looked up): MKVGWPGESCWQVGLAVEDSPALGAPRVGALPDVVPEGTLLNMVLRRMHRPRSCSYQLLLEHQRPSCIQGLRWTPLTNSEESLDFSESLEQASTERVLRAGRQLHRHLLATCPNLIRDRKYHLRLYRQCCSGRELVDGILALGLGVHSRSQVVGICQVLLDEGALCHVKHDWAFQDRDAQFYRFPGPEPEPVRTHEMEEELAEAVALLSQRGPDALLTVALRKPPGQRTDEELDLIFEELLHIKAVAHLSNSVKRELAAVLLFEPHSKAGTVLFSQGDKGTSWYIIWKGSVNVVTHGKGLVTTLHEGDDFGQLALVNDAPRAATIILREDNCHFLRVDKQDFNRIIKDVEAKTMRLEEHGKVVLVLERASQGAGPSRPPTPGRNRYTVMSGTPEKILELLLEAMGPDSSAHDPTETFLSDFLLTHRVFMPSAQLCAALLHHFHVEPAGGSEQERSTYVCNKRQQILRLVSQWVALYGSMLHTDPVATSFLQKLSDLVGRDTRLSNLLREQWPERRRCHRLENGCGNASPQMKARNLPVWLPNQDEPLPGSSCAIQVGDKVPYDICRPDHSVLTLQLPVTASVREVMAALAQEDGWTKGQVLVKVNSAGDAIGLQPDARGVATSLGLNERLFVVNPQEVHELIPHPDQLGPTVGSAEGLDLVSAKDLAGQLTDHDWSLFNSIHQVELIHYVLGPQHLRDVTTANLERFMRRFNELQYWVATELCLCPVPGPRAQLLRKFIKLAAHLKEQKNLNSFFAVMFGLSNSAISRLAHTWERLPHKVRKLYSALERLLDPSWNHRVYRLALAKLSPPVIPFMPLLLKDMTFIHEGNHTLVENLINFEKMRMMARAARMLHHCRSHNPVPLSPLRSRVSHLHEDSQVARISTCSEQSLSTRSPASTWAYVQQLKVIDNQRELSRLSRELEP

Activity change, negative = inhibition, inactive:
CC(C)(C)C(=O)OCOC(=O)C1N2C(=O)CC2S(=O)(=O)C1(C)C (configuration not stated) -6.72%, C[C@](Cc1ccc(O)c(O)c1)(NN)C(=O)O -7.94% [at 75.8 µM], c1ccc2c(c1)CC(N1CCN(c3cccc4c3OCCO4)CC1)C2 -7.72% [at 75.8 µM], CS(=O)(=O)N1CCC2(CC1)CN(C(=O)Nc1cccc(C#N)c1)C2 25.2%, COc1ccccc1-c1nccc(NCc2cnc(C)cn2)n1 15.7%, N#CC[C@H](Cc1ccccc1)N1CCN(Cc2ccccc2)CCC1=O 9.25%, COc1ccc(-c2coc3c(OC)c(OC)cc(OC)c3c2=O)cc1 10.8%, CCCCCCOc1ccccc1C(N)=O -13.4%, COc1ccccc1C1CN(Cc2ccc(Sc3nncn3C)o2)Cc2ccccc2O1 (configuration not stated) 2.97%, CN(C)c1ncnc2ccc(-c3ccccc3C(F)(F)F)cc12 -3.85%, COc1cc2c(c(OC)c1OC)-c1ccc(OC)c(=O)cc1[C@H](NC(C)=O)CC2 16.7%, CC(=O)O[C@@]1(C(C)=O)CCC2C3C=C(Cl)C4=CC(=O)C5CC5[C@@]4(C)C3CC[C@]21C (some centres not stated) -8.67%, COc1cccc(-c2nccc(N(C)Cc3ccco3)n2)c1 -11.6%, CC(=O)Nc1c(I)c(C(=O)N[C@H]2C(O)O[C@H](CO)[C@@H](O)[C@@H]2O)c(I)c(N(C)C(C)=O)c1I (some centres not stated) 7.62% [at 75.8 µM], NC[C@H]1O[C@H](O[C@H]2[C@H](O[C@@H]3O[C@H](CO)[C@@H](O)[C@H]3O)C(O)[C@H](N)C[C@@H]2N)[C@H](N)[C@@H](O)[C@@H]1O (some centres not stated) 20.9% [at 75.8 µM], COc1cccc(Cn2c(=O)c(-c3cccs3)nc3cnc(OCc4ccccc4)nc32)c1 20.4%, COCCn1c(=O)c(-c2cccs2)nc2cncnc21 13.2%, NC[C@H](O)c1ccc(O)c(O)c1, CNc1nc(-c2c(C)noc2C)nc2ccccc12 19.1%, CN(C)C(=O)c1cc(CNCc2ccc(C(F)(F)F)cc2)cc(NC(=O)c2ccccn2)c1 6.89%, CN(N=O)C(=O)N[C@H]1C(O)C(O)C(CO)O[C@@H]1O (some centres not stated) 8.22%, COC(=O)N1CCC2(CCN(Cc3cc(C(F)(F)F)cc(C(F)(F)F)c3)CC2)CC1 -20.8%, Cc1nn(-c2ccc(F)cc2)c(C)c1CNC(=O)c1ccc(-n2cc(NC(=O)c3ccoc3)cn2)cc1 -7.96%, COc1cccc(CN2CCC(c3nnc(SCC4CCCO4)n3C)CC2)c1O (configuration not stated) 16.1%, CCc1cc(C(=O)NCC2Cc3cccc(-c4ccc(C(=O)OC)cn4)c3O2)no1 (configuration not stated) 14.1%, CCC1CN(CCNC(=O)c2cc3ccccc3oc2=O)Cc2cc(OC)ccc2O1 (configuration not stated) -2.98%, O=c1c(-c2cccs2)nc2cnc(N3CCNCC3)nc2n1C1CC1 22.8%, CC1CCC2[C@](C)(CO)C(O)CC[C@]2(C)C12CCC(CO)(CCO)O2 (some centres not stated) 15.1%, CNCC(O)c1ccc(O)c(O)c1 (configuration not stated), c1cc(CN2CCCCC2)cc(OCCCNc2nc3ccccc3s2)c1, Cc1ccccc1-c1cncnc1NCc1cccnc1 6.77%, Nc1ccn(C2OC(CO)C(O)C2O)c(=O)n1 (configuration not stated), COc1ccc(OC)c2c(/C=C/c3c[nH]c4ccccc34)ccnc12 19.5%, COc1cc(N)c(NC(=O)/C=C/c2nc3cc(OC)c(OC)cc3[nH]2)cc1OC 3.17%, Cc1ccc(C(=O)NCCc2nnc3n2CCN(Cc2ccc4ccccc4c2)CC3)c(C)c1 2.14%, C=C[C@]1(C)C[C@@H](OC(=O)CSC(C)(C)CNC(=O)[C@H](N)C(C)C)[C@]2(C)[C@H](C)CC[C@]3(CCC(=O)[C@H]32)[C@@H](C)[C@@H]1O -14.5%, CC1=C(C(=O)OCc2ccc3nsnc3c2)N2C(=O)[C@@H](NC(=O)OCc3ccc4nsnc4c3)[C@H]2SC1 16.4%, COc1ccc(CN2CCOc3c(cc(-c4ccc(OC)nn4)cc3OC)C2)c(O)c1 -11.5%, CC(C)CN1CC2(CCN(C(=O)c3cnccn3)CC2)C1 7.55%, O=C(O)C1=C(CSc2nnnn2CS(=O)(=O)O)CS[C@@H]2[C@H](NC(=O)[C@H](O)c3ccccc3)C(=O)N12 17.1%, C(=C\c1nccc2ccccc12)/c1ccc(N2CCOCC2)cc1 13.7%, N#CCCn1c(=O)cnc2cnc(OCc3ccccc3)nc21 -13.6%, COc1ccc(CNc2nc(-c3cccc(C#N)c3)nc3ccccc23)c(OC)c1 -25.4%, Cc1sc2ccccc2[n+]1Cc1ccccc1 17.5%, CCOC(=O)CNS(=O)(=O)Cc1ccccc1 -6.59%, O=C(c1ccncc1)N1CCC2(CCCN(c3ccc(-c4ccccc4)cc3)C2)CC1 -12.3%, COc1ccc(Oc2ncc3nc(C)c(=O)n(CCC#N)c3n2)cc1 5.17%, CC(Oc1ccccc1)C(=O)NC1C(=O)N2C(C(=O)O)C(C)(C)S[C@@H]12 (some centres not stated) 21%, COc1ccc(-n2c(CCNC(=O)c3ccccc3C(F)(F)F)nnc2SC)cc1 14%, CN(C)c1ccc(-c2ccc3ncnc(NC4CC4)c3c2)cc1 19.2%, COc1ccccc1CNc1ncncc1-c1ccoc1 21.4%, O=C(NCCN1CCOCC1)c1cnn(-c2nccc(-c3cccs3)n2)c1C1CC1 8.91%, Cc1cnc(CNc2ccnc(-c3c(C)noc3C)n2)cn1 -5.83%, CCC(=O)N[C@@H]1c2ccccc2C2(CCN(Cc3cnc(N(C)C)s3)CC2)[C@H]1OC 15.5%, COc1cc2nc(N3CCN(C(=O)C4COc5ccccc5O4)CC3)nc(N)c2cc1OC (configuration not stated), CC(=O)Nc1ccc(OC(=O)c2ccccc2O)cc1 3.16%, CCNc1ncc2nc(-c3ccc(F)cc3)c(=O)n(C[C@H]3CCCO3)c2n1 7.47%, CN(C)c1ccc(-c2nc(NCCc3cnc[nH]3)c3ccccc3n2)cc1 6.79%, O=C(Nc1ccccc1)N1CCC2(CC1)CCN(C(=O)c1ccncc1)CC2 16.3%, Cc1cc(O)c2c(c1O)C(=O)c1c(O)cc(C)c(O)c1C2=O 18.1%, COc1cc(=O)n2c(c1C(=O)NCc1cccc(F)c1)CCN(Cc1cccnc1)CC2 14.1%, COc1ccccc1CNc1ccnc(-c2ccoc2)n1 20.5%, COc1cc(OC)c2ccc(=O)oc2c1 -9.96%, CCN(CC)C(=O)Nc1ccc(OCC(O)CNC(C)(C)C)c(C(C)=O)c1 (configuration not stated) 16.5%, C=C[C@@](C)(O)CC[C@@H]1[C@@]2(C)CCCC(C)(C)[C@@H]2CC[C@@]1(C)O -6.7%, O=C(CCBr)N1CCN(C(=O)CCBr)CC1 9.51%, COc1cc2c(cc1OC)C(C(C(=O)N(CCc1ccc(OC)c(OC)c1OC)CCc1ccc(OC)c(OC)c1OC)c1ccccc1)=NCC2 (configuration not stated) -3.13%, N[C@H]1CONC1=O 7.6% [at 75.8 µM], CCCCC1C(=O)N(c2ccccc2)N(c2ccc(O)cc2)C1=O (configuration not stated), Cc1cnc(-n2ncc(C(=O)NCCc3cccnc3)c2C)nc1-c1ccc(F)cc1 2.35%, Cc1noc(C)c1-c1nc(NCc2cccs2)c2ccccc2n1 18.2%, O=c1cc(-c2ccc(O)cc2)oc2cc(OC3OC(CO)C(O)C(O)[C@H]3O[C@@H]3OC[C@@](O)(CO)C3O)cc(O)c12 (some centres not stated) 17.3%, COc1ncc2nc(-c3cccs3)c(=O)n(Cc3cccs3)c2n1 7.29%, CCOC(=O)c1c(C)cc(OC)cc1O 7.72%, C[C@]12CCC3c4ccc(O)cc4CCC3C1CCC2=O (some centres not stated) 9.36%, COc1cccc(Nc2ncc3ncc(=O)n(C)c3n2)c1 9.09%, CS(=O)(=O)Nc1cccc(-c2cc(NCc3ccccc3)ncn2)c1 -0.881%, COc1cc(C=O)cc(OC)c1[N+](=O)[O-] 12.4%, CCN(CC)CCOCCOC(=O)C1(c2ccccc2)CCCC1, Cc1ncc2c(c1CNC(=O)c1ccccc1F)CCN(C(=O)c1ccc3c(c1)OCCO3)C2 11%, C[C@@H]1C[C@H]2[C@@H]3CCC4=CC(=O)C=C[C@]4(C)[C@@]3(F)[C@@H](O)C[C@]2(C)[C@H]1C(=O)CO 9.7%, COc1ccc(Oc2ncc3ncc(=O)n(Cc4cccs4)c3n2)cc1 -7.1%, COC(=O)N1CCC2(CCN(C(=O)Nc3cccc(F)c3)CC2)CC1 13.1%, CC(C)C[C@@H](NC(=O)OCC1c2ccccc2-c2ccccc21)C(=O)O 11.6%, O=c1[nH]ccc2c(O)cccc12 13.5% [at 75.8 µM], CC(C)(CO)[C@@H](O)C(=O)NCCC(=O)O 28%, COc1cccc(CN2CCc3nnc(CCc4ccccc4)n3CC2)c1OC 2.72%, Cc1cc(C(C)(C)C)cc(C)c1CC1=NCCN1, CC[C@]1(O)C[C@@H]2CN(CCc3c([nH]c4ccccc34)[C@@](C(=O)OC)(c3cc4c(cc3OC)N(C)C3[C@]45CCN4CC=C[C@](CC)(C45)[C@@H](OC(C)=O)[C@]3(O)C(=O)OC)C2)C1 (some centres not stated) 13.2% [at 75.8 µM], CCN(CCCCOC(=O)c1ccc(OC)c(OC)c1)C(C)Cc1ccc(OC)cc1 (configuration not stated), CCC(C)C(=O)OC1CC(C)C=C2C=CC(C)C(CCC3CC(O)CC(=O)O3)C21 (configuration not stated) 16%, O=P(O)(O)C(O)(Cn1ccnc1)P(=O)(O)O 14.8%, CC(C)CN1CCCC2(CCN(C(=O)c3cccn3C)CC2)C1 11.4%, O=C(c1cc(O)c(O)c([N+](=O)[O-])c1)c1ccccc1F 17.4% [at 75.8 µM], O=c1nc2ccccc2c2n1CC(CN1CCN(c3ccccc3)CC1)N2 (configuration not stated) -12.1%, Nc1nc2c(cnn2CCc2ccccc2)c2nc(-c3ccco3)nn12 -10.4% [at 75.8 µM], COc1cccc(Cn2c(=O)c(C)nc3cnc(Oc4cccc(Cl)c4)nc32)c1 2.49%, O=C(Nc1cccc(F)c1)N1CC2(CCN(C(=O)c3csnn3)CC2)C1 5.68%, O=C(NCC1Cc2cccc(-c3ncccn3)c2O1)C1CCOC1 (configuration not stated) 11.4%, O=C(CCn1cncn1)NCC1Cc2cc(-c3ccsc3)cc(Cl)c2O1 (configuration not stated) 3.4%, Cc1oc(-c2ccccc2NC(=O)C2CCC2)nc1CNC(=O)c1cccc(C(F)(F)F)c1 -7.55%, CC(NC(=O)c1cccnc1)c1nnc2n1CCN(Cc1ccc(-c3ccccc3)cc1)CC2 (configuration not stated) 6.32%
